Source: the antibiotic and cytotoxicity screens of Wong et al. (2023)
The list shows a part of the results.

Assays:
HSkMC = human skeletal muscle cells; experiment: cytotoxicity call (relative viability < 0.9); details: 10 µM
HepG2 = experiment: cytotoxicity call (relative viability < 0.9); details: 10 µM
S. aureus RN4220 = experiment: growth inhibition call (relative growth <= 0.2); details: 50 µM

C[C@@H]1CCCCO[C@@H](CN(C)C(=O)C2CCCCC2)[C@@H](C)CN([C@@H](C)CO)C(=O)c2cc(NS(=O)(=O)c3ccccc3)ccc2O1
cytotoxicity call (HSkMC): inactive
cytotoxicity call (HepG2): inactive
growth inhibition call (S. aureus RN4220): inactive

COc1ccc(CN(C)C[C@@H]2OCCCC[C@@H](C)Oc3ccc(NC(=O)CCC(F)(F)F)cc3C(=O)N([C@@H](C)CO)C[C@@H]2C)cc1
cytotoxicity call (HSkMC): inactive
cytotoxicity call (HepG2): inactive
growth inhibition call (S. aureus RN4220): inactive

NCCCC[C@H](N)C(=O)O
cytotoxicity call (HSkMC): inactive
cytotoxicity call (HepG2): inactive
growth inhibition call (S. aureus RN4220): inactive

CN1C(=O)c2cc(NC(=O)Nc3ccccc3F)ccc2OC[C@@H]2O[C@H](CC(=O)NCc3ccc(-c4ccccc4)cc3)CC[C@@H]21
cytotoxicity call (HSkMC): inactive
cytotoxicity call (HepG2): inactive
growth inhibition call (S. aureus RN4220): inactive

C[C@@H]1CN([C@@H](C)CO)C(=O)c2cc(NC(=O)CCCCCC(=O)Nc3ccccc3N)ccc2O[C@H]1CN(C)Cc1ccc(C(F)(F)F)cc1
cytotoxicity call (HSkMC): inactive
cytotoxicity call (HepG2): inactive
growth inhibition call (S. aureus RN4220): inactive

Cc1ccc(S(=O)(=O)N(C)C[C@@H]2Oc3ccc(NS(=O)(=O)c4cccs4)cc3CC(=O)N([C@H](C)CO)C[C@H]2C)cc1
cytotoxicity call (HSkMC): inactive
cytotoxicity call (HepG2): inactive
growth inhibition call (S. aureus RN4220): inactive

COc1ccccc1CNC(=O)C[C@@H]1C[C@H]2c3cc(NC(=O)NC4CCCC4)ccc3O[C@H]2[C@H](CO)O1
cytotoxicity call (HSkMC): inactive
cytotoxicity call (HepG2): inactive
growth inhibition call (S. aureus RN4220): inactive

O=C(C[C@H]1C[C@H]2c3cc(NS(=O)(=O)c4ccccc4)ccc3O[C@H]2[C@H](CO)O1)NC1CCCCC1
cytotoxicity call (HSkMC): inactive
cytotoxicity call (HepG2): inactive
growth inhibition call (S. aureus RN4220): inactive

C[C@@H]1CC[C@@]2(OC1)O[C@H]1C[C@H]3[C@H]4C[C@@H](O)[C@H]5C[C@@H](O[C@@H]6O[C@H](CO)[C@H](O[C@@H]7O[C@H](CO)[C@@H](O)[C@H](O[C@@H]8OC[C@@H](O)[C@H](O)[C@H]8O)[C@H]7O[C@@H]7O[C@H](CO)[C@@H](O)[C@H](O)[C@H]7O)[C@H](O)[C@H]6O)CC[C@]5(C)[C@@H]4CC[C@]3(C)[C@H]1[C@@H]2C
cytotoxicity call (HSkMC): active
cytotoxicity call (HepG2): active
growth inhibition call (S. aureus RN4220): inactive

C[C@H]1CN([C@@H](C)CO)C(=O)CCCn2nncc2CO[C@H]1CN(C)C(=O)Nc1ccc2c(c1)OCO2
cytotoxicity call (HSkMC): inactive
cytotoxicity call (HepG2): inactive
growth inhibition call (S. aureus RN4220): inactive

CCCN(C)C[C@@H]1OCCCC[C@@H](C)Oc2ccc(NC(=O)CCC(F)(F)F)cc2C(=O)N([C@H](C)CO)C[C@@H]1C
cytotoxicity call (HSkMC): inactive
cytotoxicity call (HepG2): inactive
growth inhibition call (S. aureus RN4220): inactive

CN1CCN(C2=Nc3ccccc3Oc3ccc(Cl)cc32)CC1.O=C(O)CCC(=O)O
cytotoxicity call (HSkMC): inactive
cytotoxicity call (HepG2): inactive
growth inhibition call (S. aureus RN4220): inactive

Cc1noc(C)c1NC(=O)N(C)C[C@@H]1Oc2c(NC(=O)c3ccncc3)cccc2C(=O)N([C@H](C)CO)C[C@H]1C
cytotoxicity call (HSkMC): inactive
cytotoxicity call (HepG2): inactive
growth inhibition call (S. aureus RN4220): inactive

CN1C(=O)c2cc(NS(C)(=O)=O)ccc2OC[C@H]2O[C@@H](CC(=O)N3CCOCC3)CC[C@H]21
cytotoxicity call (HSkMC): inactive
cytotoxicity call (HepG2): inactive
growth inhibition call (S. aureus RN4220): inactive

C[C@H](CO)N1C[C@H](C)[C@H](CN(C)C(=O)Nc2ccc(F)cc2)Oc2ncc(C#Cc3ccc(C(F)(F)F)cc3)cc2C1=O
cytotoxicity call (HSkMC): inactive
cytotoxicity call (HepG2): inactive
growth inhibition call (S. aureus RN4220): inactive

C[C@H](CO)N1C[C@H](C)[C@@H](CN(C)C(=O)Cc2ccncc2)Oc2cc(C#Cc3ccccc3F)ccc2S1(=O)=O
cytotoxicity call (HSkMC): inactive
cytotoxicity call (HepG2): inactive
growth inhibition call (S. aureus RN4220): inactive

CC(C)CC#Cc1ccc2c(c1)O[C@H](CN(C)S(=O)(=O)c1ccc(F)cc1)[C@H](C)CN([C@@H](C)CO)S2(=O)=O
cytotoxicity call (HSkMC): inactive
cytotoxicity call (HepG2): inactive
growth inhibition call (S. aureus RN4220): inactive

C[C@@H]1CN([C@@H](C)CO)C(=O)Cc2cc(NC(=O)Nc3cccc4ccccc34)ccc2O[C@@H]1CN(C)Cc1ccc(-c2ccccc2)cc1
cytotoxicity call (HSkMC): inactive
cytotoxicity call (HepG2): inactive
growth inhibition call (S. aureus RN4220): inactive

C[C@@H]1CN([C@H](C)CO)C(=O)c2cc(-c3ccc(C(=O)N(C)C)cc3)cnc2O[C@@H]1CN(C)C(=O)c1cccnc1
cytotoxicity call (HSkMC): inactive
cytotoxicity call (HepG2): inactive
growth inhibition call (S. aureus RN4220): inactive

Cc1noc(C)c1NC(=O)N(C)C[C@@H]1OCCCC[C@H](C)Oc2ccc(NC(=O)C3CCCCC3)cc2C(=O)N([C@H](C)CO)C[C@@H]1C
cytotoxicity call (HSkMC): inactive
cytotoxicity call (HepG2): inactive
growth inhibition call (S. aureus RN4220): inactive

O=C1CN(C(=O)c2ccccc2)C(=S)N1
cytotoxicity call (HSkMC): inactive
cytotoxicity call (HepG2): inactive
growth inhibition call (S. aureus RN4220): inactive

C[C@H]1CN([C@@H](C)CO)C(=O)c2cc(NC(=O)C3CCCCC3)ccc2O[C@H]1CN(C)Cc1ccc(Oc2ccccc2)cc1
cytotoxicity call (HSkMC): inactive
cytotoxicity call (HepG2): inactive
growth inhibition call (S. aureus RN4220): inactive

O=C(CN1CCOCC1)NCC[C@H]1CC[C@H](NS(=O)(=O)c2ccc(F)cc2)[C@@H](CO)O1
cytotoxicity call (HSkMC): inactive
cytotoxicity call (HepG2): inactive
growth inhibition call (S. aureus RN4220): inactive

C[C@@H]1CN([C@H](C)CO)C(=O)c2cccc(NC(=O)CCCCCC(=O)Nc3ccccc3N)c2O[C@@H]1CN(C)Cc1ccc(Cl)c(Cl)c1
cytotoxicity call (HSkMC): inactive
cytotoxicity call (HepG2): inactive
growth inhibition call (S. aureus RN4220): inactive

O=C(C[C@@H]1CC[C@H]2[C@@H](COC[C@H](O)CN2S(=O)(=O)c2ccc(F)cc2)O1)NCc1ccc(Cl)c(Cl)c1
cytotoxicity call (HSkMC): inactive
cytotoxicity call (HepG2): inactive
growth inhibition call (S. aureus RN4220): inactive

Cc1cc(C(C)(C)C)cc(C)c1CC1=NCCN1.Cl
cytotoxicity call (HSkMC): inactive
cytotoxicity call (HepG2): inactive
growth inhibition call (S. aureus RN4220): inactive

C/C=C/c1cccc(-c2nc(C(=O)NCc3ccc(OC)cc3)cc3c2[C@H](CCO)N([S@@](=O)C(C)(C)C)C3)c1
cytotoxicity call (HSkMC): inactive
cytotoxicity call (HepG2): inactive
growth inhibition call (S. aureus RN4220): inactive

Cc1noc(C)c1S(=O)(=O)Nc1ccc2c(c1)C(=O)N([C@@H](C)CO)C[C@H](C)[C@@H](CN(C)S(=O)(=O)c1ccc(Cl)cc1)O2
cytotoxicity call (HSkMC): inactive
cytotoxicity call (HepG2): inactive
growth inhibition call (S. aureus RN4220): inactive

CC=Cc1ccc2n(c1=O)C[C@H]1[C@H](CO)[C@@H](C(=O)NCCc3cn(C)cn3)[C@@H]2N1C(=O)CC
cytotoxicity call (HSkMC): inactive
cytotoxicity call (HepG2): inactive
growth inhibition call (S. aureus RN4220): inactive
